According to patent US20250270302A1:
Entries with a single value are a further part of the results.

Target: huGREM1 and huGREM2 15-mer library peptides covering the aligned residues GREM1 R64 and GREM2 E43 (human)
Experiment: ELISA on plate-bound 15-mer peptides (0.5 µg/ml), 14-D10-2 at 2.5 µg/ml

B1: anti-Gremlin-1 antibody 14-D10-2 (antibody, from a related filing, IgG2b, V domains shown)
VH: EVQLQQSGPELVKPGASVKISCKASGYSFTGYYMHWVKQSHGNILDWIGYFFPYNGFSNCNQKFKGKATLTVDKSSSTAYMELRSLTSEDSAVYYCARGGLGRGYFDVWGTGTTVTVSS
VL: DIQMTQSPSYLSVSLGGRVTITCKASDHINNWLAWYQQKPGNAPRLLISGATSLETGVPSRFSGSGSGKDYTLSITSLQTEDVATYYCQQYWSSPRTFGGGTKLEIK
- A492 nm (huGREM1 15-mer peptide 1): 0.0925 A492 nm
- A492 nm (huGREM1 15-mer peptide 2): 0.191 A492 nm
- A492 nm (huGREM1 15-mer peptide 3): 0.11 A492 nm
- A492 nm (huGREM2 15-mer peptide 1): 0.365 A492 nm
- A492 nm (huGREM2 15-mer peptide 2): 0.206 A492 nm
- A492 nm (huGREM2 15-mer peptide 3): 0.521 A492 nm
